Whole data set: some 81,000 sequences, median “one-hybrid fitness for binding NBS DNA” near -0.1, cut for the highest 2% near 0.36. This is one part of the list.
B1: Caulobacter ParB omega fusion; a variant is named by its letters at X, in order, B8GW30 (parent)
chain: MESVVVGEPGMSEGRRGLGRGLSALLGEVDAAPAQAPGEQLGGSREAPIEILQRNPDQPRRTFREEDLEDLSNSIREKGVLQPILVRPSPDTAGEYQIVAGERAWRAAQRAGLKTVPIMVRELDDLAVLEIGIIENVQRADLNVLEEALSYKVLMEKFERTQENIAQTIGKSXSHVANXMRLLXLPDEVQSYLVSGELTAXHARAIAAAADPVALAKQIIEGGLSVRETEALARKAPNLSAGKSKGGRPPRVKDTDTQALESDLSSVLGLDVSIDHRGSTGTLTITYATLEQLDDLCNRLTRGI

Variants of: B1
Experiment: one-hybrid fitness for binding NBS DNA (the Noc-binding site; scaled: cognate 1, non-cognate 0); higher = stronger binding
Settings: with NBS DNA site
How it was run: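 Selection: bacterial one-hybrid in E. coli USO, HIS3 reporter with the site 19 bp from the promoter, 48 hours at 37°C on M9-minus-histidine plus 0.1 mM IPTG and 5 mM 3-AT. Libraries were Caulobacter ParB with four randomised specificity codons, sequenced on Illumina before and after selection. Fitness is the rescaled log change in variant-to-wild-type read ratio, anchored to the cognate and non-cognate sites.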

KRAC and ANND cannot be ordered by “one-hybrid fitness for binding NBS DNA” value: no more than 0.2 for the first, no more than 0.2 for the second.

VTAS and LHVT cannot be ordered by “one-hybrid fitness for binding NBS DNA” value: no more than 0.2 for the first, no more than 0.2 for the second.

First: VIVS
Second: QSQH
The “one-hybrid fitness for binding NBS DNA” value of the first is lower: no more than 0.2 for the first, 0.246 for the second.

YLAD and KTMR cannot be ordered by “one-hybrid fitness for binding NBS DNA” value: no more than 0.2 for the first, no more than 0.2 for the second.

First: NTTI
Second: RRVC
The “one-hybrid fitness for binding NBS DNA” value of the first is lower: no more than 0.2 for the first, 0.414 for the second.

GPCI and QCPV cannot be ordered by “one-hybrid fitness for binding NBS DNA” value: no more than 0.2 for the first, no more than 0.2 for the second.

NSLW and LRLG cannot be ordered by “one-hybrid fitness for binding NBS DNA” value: no more than 0.2 for the first, no more than 0.2 for the second.

ADTP and AKPN cannot be ordered by “one-hybrid fitness for binding NBS DNA” value: no more than 0.2 for the first, no more than 0.2 for the second.

KRRD and YQAR cannot be ordered by “one-hybrid fitness for binding NBS DNA” value: no more than 0.2 for the first, no more than 0.2 for the second.

LVED and EVVR cannot be ordered by “one-hybrid fitness for binding NBS DNA” value: no more than 0.2 for the first, no more than 0.2 for the second.

First: MGVG
Second: QTAV
The “one-hybrid fitness for binding NBS DNA” value of the first is lower: no more than 0.2 for the first, 0.217 for the second.

RQDH and NTRV cannot be ordered by “one-hybrid fitness for binding NBS DNA” value: no more than 0.2 for the first, no more than 0.2 for the second.

NHDW and ANKC cannot be ordered by “one-hybrid fitness for binding NBS DNA” value: no more than 0.2 for the first, no more than 0.2 for the second.

TLPL and KANL cannot be ordered by “one-hybrid fitness for binding NBS DNA” value: no more than 0.2 for the first, no more than 0.2 for the second.

Going from RFSH to ETKR, the “one-hybrid fitness for binding NBS DNA” value rises from no more than 0.2 to 0.278.

CFRT and VVPP cannot be ordered by “one-hybrid fitness for binding NBS DNA” value: no more than 0.2 for the first, no more than 0.2 for the second.

YLYR and YSAG cannot be ordered by “one-hybrid fitness for binding NBS DNA” value: no more than 0.2 for the first, no more than 0.2 for the second.

TPCD and DFLS cannot be ordered by “one-hybrid fitness for binding NBS DNA” value: no more than 0.2 for the first, no more than 0.2 for the second.

QKQI and PEAN cannot be ordered by “one-hybrid fitness for binding NBS DNA” value: no more than 0.2 for the first, no more than 0.2 for the second.

IPHV and PVML cannot be ordered by “one-hybrid fitness for binding NBS DNA” value: no more than 0.2 for the first, no more than 0.2 for the second.

HTKM and RGNG cannot be ordered by “one-hybrid fitness for binding NBS DNA” value: no more than 0.2 for the first, no more than 0.2 for the second.

LDWL and SAGE cannot be ordered by “one-hybrid fitness for binding NBS DNA” value: no more than 0.2 for the first, no more than 0.2 for the second.

ASPR and QIKP cannot be ordered by “one-hybrid fitness for binding NBS DNA” value: no more than 0.2 for the first, no more than 0.2 for the second.

TFKC and AWNS cannot be ordered by “one-hybrid fitness for binding NBS DNA” value: no more than 0.2 for the first, no more than 0.2 for the second.

MQSY and KGGI cannot be ordered by “one-hybrid fitness for binding NBS DNA” value: no more than 0.2 for the first, no more than 0.2 for the second.

ELCF and SCAR cannot be ordered by “one-hybrid fitness for binding NBS DNA” value: no more than 0.2 for the first, no more than 0.2 for the second.

RMNN and AYLA cannot be ordered by “one-hybrid fitness for binding NBS DNA” value: no more than 0.2 for the first, no more than 0.2 for the second.

NWLE and LYAG cannot be ordered by “one-hybrid fitness for binding NBS DNA” value: no more than 0.2 for the first, no more than 0.2 for the second.

AMPN and TAYR cannot be ordered by “one-hybrid fitness for binding NBS DNA” value: no more than 0.2 for the first, no more than 0.2 for the second.

RNWP and ASQT cannot be ordered by “one-hybrid fitness for binding NBS DNA” value: no more than 0.2 for the first, no more than 0.2 for the second.

RFLM and QGKN cannot be ordered by “one-hybrid fitness for binding NBS DNA” value: no more than 0.2 for the first, no more than 0.2 for the second.

HSPG and PMST cannot be ordered by “one-hybrid fitness for binding NBS DNA” value: no more than 0.2 for the first, no more than 0.2 for the second.

LYCS and RAWH cannot be ordered by “one-hybrid fitness for binding NBS DNA” value: no more than 0.2 for the first, no more than 0.2 for the second.

SKRA and LLCT cannot be ordered by “one-hybrid fitness for binding NBS DNA” value: no more than 0.2 for the first, no more than 0.2 for the second.

NYER and SFAT cannot be ordered by “one-hybrid fitness for binding NBS DNA” value: no more than 0.2 for the first, no more than 0.2 for the second.

SRKQ and SQQA cannot be ordered by “one-hybrid fitness for binding NBS DNA” value: no more than 0.2 for the first, no more than 0.2 for the second.

RQMA and HGLM cannot be ordered by “one-hybrid fitness for binding NBS DNA” value: no more than 0.2 for the first, no more than 0.2 for the second.

RETH and YMEF cannot be ordered by “one-hybrid fitness for binding NBS DNA” value: no more than 0.2 for the first, no more than 0.2 for the second.

DYIS and IKRT cannot be ordered by “one-hybrid fitness for binding NBS DNA” value: no more than 0.2 for the first, no more than 0.2 for the second.

ELFG and VELC cannot be ordered by “one-hybrid fitness for binding NBS DNA” value: no more than 0.2 for the first, no more than 0.2 for the second.

First: KFYT
Second: QTPT
The “one-hybrid fitness for binding NBS DNA” value of the first is lower: no more than 0.2 for the first, 0.418 for the second.

NMPE and NYPD cannot be ordered by “one-hybrid fitness for binding NBS DNA” value: no more than 0.2 for the first, no more than 0.2 for the second.

CGAY and MATR cannot be ordered by “one-hybrid fitness for binding NBS DNA” value: no more than 0.2 for the first, no more than 0.2 for the second.

PYPI and QDPE cannot be ordered by “one-hybrid fitness for binding NBS DNA” value: no more than 0.2 for the first, no more than 0.2 for the second.

MGVN and VLSG cannot be ordered by “one-hybrid fitness for binding NBS DNA” value: no more than 0.2 for the first, no more than 0.2 for the second.

IIPC and LHEK cannot be ordered by “one-hybrid fitness for binding NBS DNA” value: no more than 0.2 for the first, no more than 0.2 for the second.

DDDP and QNRV cannot be ordered by “one-hybrid fitness for binding NBS DNA” value: no more than 0.2 for the first, no more than 0.2 for the second.

LCLM and SQIW cannot be ordered by “one-hybrid fitness for binding NBS DNA” value: no more than 0.2 for the first, no more than 0.2 for the second.

SRVL and DAPS cannot be ordered by “one-hybrid fitness for binding NBS DNA” value: no more than 0.2 for the first, no more than 0.2 for the second.

KPIS and TEHC cannot be ordered by “one-hybrid fitness for binding NBS DNA” value: no more than 0.2 for the first, no more than 0.2 for the second.

First: QRKV
Second: NHQT
The “one-hybrid fitness for binding NBS DNA” value of the first is higher: 0.588 for the first, no more than 0.2 for the second.

TVIG and RNWQ cannot be ordered by “one-hybrid fitness for binding NBS DNA” value: no more than 0.2 for the first, no more than 0.2 for the second.

KSIV and KRCL cannot be ordered by “one-hybrid fitness for binding NBS DNA” value: no more than 0.2 for the first, no more than 0.2 for the second.

PVGT and SRDI cannot be ordered by “one-hybrid fitness for binding NBS DNA” value: no more than 0.2 for the first, no more than 0.2 for the second.

VDAS and LVAY cannot be ordered by “one-hybrid fitness for binding NBS DNA” value: no more than 0.2 for the first, no more than 0.2 for the second.

KHMG and WDMT cannot be ordered by “one-hybrid fitness for binding NBS DNA” value: no more than 0.2 for the first, no more than 0.2 for the second.

PHKA and LCRV cannot be ordered by “one-hybrid fitness for binding NBS DNA” value: no more than 0.2 for the first, no more than 0.2 for the second.

LDHC and QPHF cannot be ordered by “one-hybrid fitness for binding NBS DNA” value: no more than 0.2 for the first, no more than 0.2 for the second.

PKID and CMNC cannot be ordered by “one-hybrid fitness for binding NBS DNA” value: no more than 0.2 for the first, no more than 0.2 for the second.

GSVQ and YPQY cannot be ordered by “one-hybrid fitness for binding NBS DNA” value: no more than 0.2 for the first, no more than 0.2 for the second.

RYWA and QHDF cannot be ordered by “one-hybrid fitness for binding NBS DNA” value: no more than 0.2 for the first, no more than 0.2 for the second.

SGQL and QPAT cannot be ordered by “one-hybrid fitness for binding NBS DNA” value: no more than 0.2 for the first, no more than 0.2 for the second.

SNTA and PQKY cannot be ordered by “one-hybrid fitness for binding NBS DNA” value: no more than 0.2 for the first, no more than 0.2 for the second.

TKAC and AGGR cannot be ordered by “one-hybrid fitness for binding NBS DNA” value: no more than 0.2 for the first, no more than 0.2 for the second.

MMEC and RIFY cannot be ordered by “one-hybrid fitness for binding NBS DNA” value: no more than 0.2 for the first, no more than 0.2 for the second.

STAQ and HGCS cannot be ordered by “one-hybrid fitness for binding NBS DNA” value: no more than 0.2 for the first, no more than 0.2 for the second.

IYVT and SYGG cannot be ordered by “one-hybrid fitness for binding NBS DNA” value: no more than 0.2 for the first, no more than 0.2 for the second.

LKYI and PTMA cannot be ordered by “one-hybrid fitness for binding NBS DNA” value: no more than 0.2 for the first, no more than 0.2 for the second.

EHAL and SQCK cannot be ordered by “one-hybrid fitness for binding NBS DNA” value: no more than 0.2 for the first, no more than 0.2 for the second.

AYAS and RALI cannot be ordered by “one-hybrid fitness for binding NBS DNA” value: no more than 0.2 for the first, no more than 0.2 for the second.

DPDN and IARY cannot be ordered by “one-hybrid fitness for binding NBS DNA” value: no more than 0.2 for the first, no more than 0.2 for the second.

PSEG and QPYY cannot be ordered by “one-hybrid fitness for binding NBS DNA” value: no more than 0.2 for the first, no more than 0.2 for the second.

IDFR and AYCK cannot be ordered by “one-hybrid fitness for binding NBS DNA” value: no more than 0.2 for the first, no more than 0.2 for the second.

Going from QWAR to FSPI, the “one-hybrid fitness for binding NBS DNA” value falls from 0.222 to no more than 0.2.

GTAS and QEVS cannot be ordered by “one-hybrid fitness for binding NBS DNA” value: no more than 0.2 for the first, no more than 0.2 for the second.

IFRK and HGPT cannot be ordered by “one-hybrid fitness for binding NBS DNA” value: no more than 0.2 for the first, no more than 0.2 for the second.

With TIKS the “one-hybrid fitness for binding NBS DNA” value was no more than 0.2.

From a collection of fitness landscapes (doi:10.1016/j.celrep.2020.107928)
